# Reference: PubChem BioAssay AID686978 (National Center for Advancing Translational Sciences (NCATS), 2013)
# Values joined by “and” are separate entries in the source; they are usually repeats but may differ in a detail not shown here. Equal values may be shown once. Out of some 420,000 compounds screened, about 64,000 (15%) were called active. Inconclusive results, whose numbers are uncertain, are shown with a selection of clear calls. Calls come from the whole dose curve; as a rule, active = well fitted inhibition curve with a large enough effect; inconclusive = small, poorly fitted or top-dose-only effect; inactive = flat fitted curve, though single readings scatter. Potencies of inconclusive entries are left out as doubtful fits. Peptide text beside a SMILES is read from it.
# Experiment: qHTS for Inhibitors of human tyrosyl-DNA phosphodiesterase 1 (TDP1): qHTS in cells in absence of CPT; note: nearly all actives have a fitted effect of over 55% in size
# Settings: DT40 Tdp1-/- hTDP1 cells, no CPT, ATP luminescence, 48 h; activity change, negative = growth inhibition: at 46.2 µM (top of the series) unless noted
# Procedure, shortened: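 A cellular qHTS used chicken DT40 cells lacking endogenous Tdp1 but carrying stably transfected human TDP1. Compounds were applied without camptothecin, and cell growth kinetics were judged by ATP-dependent luminescence after ≥48 hr.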
# % is set by controls: 0 for no effect and ±100 for the full control effect; potency is the fitted concentration of half-maximal effect; tags give direction and shape of the fitted curve.
Structure (SMILES),Potency,"activity change, negative = growth inhibition"
c1ccc(CNC2CCCCCCC2)cc1 (tested in a mixture with another compound),"inconclusive [inhibitor, single point]",–
C[C@]12CC[C@H]3[C@@H](CCC4=CC(=O)CC[C@@]43C)[C@@H]1CC[C@@H]2C(=O)CO,active: 5.7 µM and active: 10.3 µM,–
NC(=S)NN=C1CCC2(CCCCC2)CC1,"inconclusive [inhibitor, single point]",–
Cc1cc(C(=O)OCC(=O)Nc2ccc(F)cc2F)c(C)n1C1CC1,"inconclusive [inhibitor, single point]",–
Cc1cc(OC(=O)CCNC(=O)OC(C)(C)C)c2c3c(c(=O)oc2c1)CCC3,active: 20.6 µM,–
C[C@]12CC[C@H](O)CC1=CCC1C2CC[C@]2(C)C(=O)[C@H](Br)CC12 (some centres undefined),"inconclusive [inhibitor, single point]",–
CN(C)C(Cc1ccccc1)C(=O)c1c[nH]c2ccccc12 (centres undefined),"inconclusive [inhibitor, single point]",–
O=C1c2ccccc2-c2cc3ccccc3cc21,"inconclusive [inhibitor, partial curve, poor fit]",–
COC(=O)C1=C(c2cccc(OC)c2OC)C[C@@H]2CC[C@H]1N2C(=O)NCc1cccc2ccccc12,–,inconclusive: -31.4% [inhibitor]
C/C=C1/C[C@@H](C)[C@](O)(CO)C(=O)OCC2=CCN3CC[C@@H](OC1=O)[C@@H]23,"inconclusive [inhibitor, partial curve]",–
CCOC(=O)CNC(=O)N1Cc2ccccc2-n2nncc2C1,–,inactive: -2.06%
COc1ccc(OCC(=O)N2CCCC(N3CCN(c4ccccc4C)CC3)C2)cc1 (centres undefined),active: 20.6 µM,–
COc1ccc(C(=O)CC2(CC(=O)c3ccc(OC)cc3)C(=O)N(C)C(=O)N(C)C2=O)cc1,–,inactive: 3.69%
Cn1ccc(NC(=O)CCl)n1,"inconclusive [inhibitor, single point]",–
C[C@H](N)C(=O)N[C@@H](C)C(=O)N[C@@H](Cc1ccccc1)C(=O)CCl (HELM PEPTIDE1{A.A.F.[ClC[*:1]]}$$$$V2.0),"inconclusive [inhibitor, single point]",–
CCOC(=O)C1(CCOc2ccccc2)CCN(Cc2cccc(O)c2)CC1,"inconclusive [inhibitor, single point]",–
COc1cc2c(c(OC)c1OC)-c1ccc(O)c(=O)cc1C(NC(C)=O)CC2 (centres undefined),active: 2.91 µM and active: 65.1 nM,–
CN1C(=O)c2ccccc2Sc2ccc(NC(=O)NCc3ccc(Cl)cc3)cc21,active: 16.4 µM,–
Cc1cccc(CN2C(=O)CN=C(c3ccccc3Cl)c3cc(Cl)ccc32)c1,active: 23.1 µM,–
COC(=O)C1=C(c2ccc(F)cc2F)C[C@@H]2CC[C@H]1N2C(=O)N1CCCC1,active: 8.2 µM,–
COc1ccc(OC)c(CN2CCCC(C(=O)c3sccc3C)C2)c1 (centres undefined),"inconclusive [inhibitor, single point]",–
COC(=O)C1=C(c2ccccc2OCc2ccccc2)C[C@@H]2CC[C@H]1N2C(=O)NCc1ccc(Cl)cc1,"inconclusive [inhibitor, single point]",–

Structure (SMILES),Potency,"activity change, negative = growth inhibition"
O=C1NC(=S)N(c2ccc(F)cc2)C(=O)/C1=C/c1ccccc1O,–,inactive: -12.4%
O=[N+]([O-])c1cc2c(cc1CNCCc1ccc3c(c1)OCO3)OCO2,"inconclusive [inhibitor, single point]",–
CN(C)c1nc(N(C)C)nc(N(C#N)CCCl)n1,–,inactive: -14.3%
CCOc1cc2c(cc1OCC)-n1cccc1C(c1cccc([N+](=O)[O-])c1)NC2 (centres undefined),active: 18.4 µM,–
CN1[C@H](CC(=O)c2ccccc2)CCC[C@H]1C[C@@H](O)c1ccccc1,–,inactive: -20.5%
CN1Cc2ccccc2-n2nncc2C1,–,inactive: 0.697%
CCn1c(O)c(C(=O)CC2NCCc3ccccc32)c(=O)n(CC)c1=S (centres undefined),"inconclusive [inhibitor, partial curve, poor fit]",–
COC1C(C)OC(OC2CC(C)(O)Cc3cc4c(c(O)c32)C(=O)c2c(O)cc3c(c2C4=O)OC2OC3(C)C(O)C(N(C)C)C2O)C(OC)C1(C)OC (centres undefined),active: 0.116 µM,–
CC(=O)O[C@@H]1CC[C@]2(C)C3CC[C@@]4(C)C(C[C@@H](O)[C@@H]4O)C3[C@@H](OC(C)=O)C[C@H]2C1 (some centres undefined),"inconclusive [inhibitor, single point]",–
Oc1ccc2c3c1O[C@H]1[C@@H](O)C=C[C@H]4[C@H](C2)NCC[C@@]341,–,inactive: 13.9%
CC(c1ccccc1)(c1ccccc1)c1ccncc1,"inconclusive [inhibitor, single point]",–
Clc1ccc2nc3c(c(-c4ccccc4)c2c1)CNCC3,"inconclusive [inhibitor, single point]",–
COC(=O)C1=C(c2ccc3ccccc3c2)C[C@@H]2CC[C@H]1N2C(=O)NC(C)C,active: 18.4 µM,–
Clc1ccc(-c2nc3ccc(Cl)cn3c2CN2CCCCC2)cc1,active: 16.4 µM,–
CCCCN1CCC(O)(c2ccccc2)C(C(=O)c2ccccc2)C1 (centres undefined),active: 2.91 µM,–
Cc1ccc(C)c(CN2C(=O)c3ccccc3Sc3ccc(C(=O)N4CCC5(CC4)OCCO5)cc32)c1,active: 20.6 µM,–
COc1ccc(C(=O)Cn2c(NCCCl)nc3ccccc32)cc1,–,inactive: -26.3%
COc1ccc2c3c1O[C@H]1[C@@H](O)C=C[C@H]4[C@@H](C2)NCC[C@@]341,"inconclusive [inhibitor, single point]",–
O=C(c1cccc2ccccc12)C1CCCN(Cc2ccon2)C1 (centres undefined),"inconclusive [inhibitor, partial curve]",–
Cc1ccc(Cl)cc1N1CCN(C(=O)C2CCN(S(=O)(=O)c3ccc4c(c3)oc(=O)n4C)CC2)CC1,active: 0.731 µM,–
CNS(=O)(=O)c1ccc(-c2ccc(C=C3C(=O)NC(=O)NC3=O)o2)cc1,–,inactive: -21.2%
COC(=O)C1=C(c2c(C)noc2C)C[C@@H]2CC[C@H]1N2C(=O)NCCNC(C)=O,–,inactive: -11.5%
